Test results from a collection of fitness landscapes (doi:10.1016/j.celrep.2020.107928).
In all, about 81,000 sequences were measured (“one-hybrid fitness for binding parS DNA”: median about -0.17, highest 2% from about 0.51 on). The list shows a part of the results.

B1: Caulobacter ParB omega fusion; a variant is named by its letters at X, in order, B8GW30 (parent)
chain: MESVVVGEPGMSEGRRGLGRGLSALLGEVDAAPAQAPGEQLGGSREAPIEILQRNPDQPRRTFREEDLEDLSNSIREKGVLQPILVRPSPDTAGEYQIVAGERAWRAAQRAGLKTVPIMVRELDDLAVLEIGIIENVQRADLNVLEEALSYKVLMEKFERTQENIAQTIGKSXSHVANXMRLLXLPDEVQSYLVSGELTAXHARAIAAAADPVALAKQIIEGGLSVRETEALARKAPNLSAGKSKGGRPPRVKDTDTQALESDLSSVLGLDVSIDHRGSTGTLTITYATLEQLDDLCNRLTRGI

Variants of: B1
Assay: one-hybrid fitness for binding parS DNA (scaled: cognate 1, non-cognate 0); higher = stronger binding
Settings: with parS DNA site
Outline: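 Pre- and post-selection plasmids were Illumina-sequenced, three replicate libraries were pooled, and any variant with under 10 reads was removed. The libraries were Caulobacter ParB with four specificity codons randomised, selected in E. coli USO through a HIS3 reporter whose site is 19 bp from the promoter. Cells grew 48 hours at 37°C on M9 without histidine, with 0.1 mM IPTG and 5 mM 3-AT. Fitness is the log change in variant-to-wild-type read ratio, rescaled against cognate and non-cognate.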
In the case of TRIL, the “one-hybrid fitness for binding parS DNA” value is reported as at most 0.2.
In the case of TRYA, the “one-hybrid fitness for binding parS DNA” value is reported as at most 0.2.
In the case of NYKS, the “one-hybrid fitness for binding parS DNA” value is reported as at most 0.2.
For SFEL, the “one-hybrid fitness for binding parS DNA” value was at most 0.2.
SVQG was tested, and the “one-hybrid fitness for binding parS DNA” value was at most 0.2.
With CGSD the “one-hybrid fitness for binding parS DNA” value was at most 0.2.
With RIPF the “one-hybrid fitness for binding parS DNA” value was at most 0.2.
KYRV was tested, and the “one-hybrid fitness for binding parS DNA” value was at most 0.2.
ERAK was tested, and the “one-hybrid fitness for binding parS DNA” value was at most 0.2.
For NRCA, the “one-hybrid fitness for binding parS DNA” value was at most 0.2.
GESY was tested, and the “one-hybrid fitness for binding parS DNA” value was at most 0.2.
For NFSF, the “one-hybrid fitness for binding parS DNA” value was at most 0.2.
With SIIN the “one-hybrid fitness for binding parS DNA” value was at most 0.2.
ADGR was tested, and the “one-hybrid fitness for binding parS DNA” value was at most 0.2.
With TDRL the “one-hybrid fitness for binding parS DNA” value was at most 0.2.
With CHNG the “one-hybrid fitness for binding parS DNA” value was at most 0.2.
KAYT was tested, and the “one-hybrid fitness for binding parS DNA” value was at most 0.2.
In the case of TMIC, the “one-hybrid fitness for binding parS DNA” value is reported as at most 0.2.
With CHDT the “one-hybrid fitness for binding parS DNA” value was at most 0.2.
With EGAY the “one-hybrid fitness for binding parS DNA” value was at most 0.2.
In the case of AWQF, the “one-hybrid fitness for binding parS DNA” value is reported as at most 0.2.
With RFVN the “one-hybrid fitness for binding parS DNA” value was 0.26.
In the case of KDKS, the “one-hybrid fitness for binding parS DNA” value is reported as at most 0.2.
In the case of KKKI, the “one-hybrid fitness for binding parS DNA” value is reported as at most 0.2.
For ARQC, the “one-hybrid fitness for binding parS DNA” value was at most 0.2.
With IKCT the “one-hybrid fitness for binding parS DNA” value was at most 0.2.
EPYS was tested, and the “one-hybrid fitness for binding parS DNA” value was at most 0.2.
For PEYR, the “one-hybrid fitness for binding parS DNA” value was at most 0.2.
TSRR was tested, and the “one-hybrid fitness for binding parS DNA” value was at most 0.2.
In the case of FLTR, the “one-hybrid fitness for binding parS DNA” value is reported as at most 0.2.
In the case of NVQW, the “one-hybrid fitness for binding parS DNA” value is reported as at most 0.2.
In the case of QTDK, the “one-hybrid fitness for binding parS DNA” value is reported as at most 0.2.
AWPG was tested, and the “one-hybrid fitness for binding parS DNA” value was at most 0.2.
For RRVY, the “one-hybrid fitness for binding parS DNA” value was 0.247.
For KDMS, the “one-hybrid fitness for binding parS DNA” value was at most 0.2.
For QNKW, the “one-hybrid fitness for binding parS DNA” value was at most 0.2.
In the case of NKRA, the “one-hybrid fitness for binding parS DNA” value is reported as at most 0.2.
For IAVM, the “one-hybrid fitness for binding parS DNA” value was at most 0.2.
SDVT was tested, and the “one-hybrid fitness for binding parS DNA” value was at most 0.2.
In the case of VDGL, the “one-hybrid fitness for binding parS DNA” value is reported as at most 0.2.
With WMEG the “one-hybrid fitness for binding parS DNA” value was at most 0.2.
For TISC, the “one-hybrid fitness for binding parS DNA” value was at most 0.2.
QEEK was tested, and the “one-hybrid fitness for binding parS DNA” value was at most 0.2.
With TLSI the “one-hybrid fitness for binding parS DNA” value was at most 0.2.
With NHVF the “one-hybrid fitness for binding parS DNA” value was at most 0.2.
In the case of CYHG, the “one-hybrid fitness for binding parS DNA” value is reported as at most 0.2.
In the case of HHFS, the “one-hybrid fitness for binding parS DNA” value is reported as at most 0.2.
In the case of HLEL, the “one-hybrid fitness for binding parS DNA” value is reported as at most 0.2.
With DDLR the “one-hybrid fitness for binding parS DNA” value was at most 0.2.
AHPL was tested, and the “one-hybrid fitness for binding parS DNA” value was at most 0.2.
In the case of NQTC, the “one-hybrid fitness for binding parS DNA” value is reported as at most 0.2.
For YLFG, the “one-hybrid fitness for binding parS DNA” value was at most 0.2.
In the case of AERW, the “one-hybrid fitness for binding parS DNA” value is reported as at most 0.2.
ATET was tested, and the “one-hybrid fitness for binding parS DNA” value was at most 0.2.
With SSKG the “one-hybrid fitness for binding parS DNA” value was at most 0.2.
With GVHS the “one-hybrid fitness for binding parS DNA” value was at most 0.2.
STDN was tested, and the “one-hybrid fitness for binding parS DNA” value was at most 0.2.
With RQEM the “one-hybrid fitness for binding parS DNA” value was 0.255.
RGWG was tested, and the “one-hybrid fitness for binding parS DNA” value was 0.51.
With VTSM the “one-hybrid fitness for binding parS DNA” value was at most 0.2.
With FYRV the “one-hybrid fitness for binding parS DNA” value was at most 0.2.
In the case of MFAT, the “one-hybrid fitness for binding parS DNA” value is reported as at most 0.2.
For TRTK, the “one-hybrid fitness for binding parS DNA” value was at most 0.2.
With FQRG the “one-hybrid fitness for binding parS DNA” value was at most 0.2.
In the case of APRW, the “one-hybrid fitness for binding parS DNA” value is reported as at most 0.2.
RRGP was tested, and the “one-hybrid fitness for binding parS DNA” value was at most 0.2.
FYRL was tested, and the “one-hybrid fitness for binding parS DNA” value was at most 0.2.
LQVF was tested, and the “one-hybrid fitness for binding parS DNA” value was at most 0.2.
For DMPR, the “one-hybrid fitness for binding parS DNA” value was at most 0.2.
For INKG, the “one-hybrid fitness for binding parS DNA” value was at most 0.2.
AREV was tested, and the “one-hybrid fitness for binding parS DNA” value was at most 0.2.
For IASV, the “one-hybrid fitness for binding parS DNA” value was at most 0.2.
In the case of LEWE, the “one-hybrid fitness for binding parS DNA” value is reported as at most 0.2.
With HSRA the “one-hybrid fitness for binding parS DNA” value was at most 0.2.
In the case of VNST, the “one-hybrid fitness for binding parS DNA” value is reported as at most 0.2.
In the case of FNTF, the “one-hybrid fitness for binding parS DNA” value is reported as at most 0.2.
For RSSF, the “one-hybrid fitness for binding parS DNA” value was 0.24.
